Data as given in paper PMC12040169 (PLOS Biology, 2025).
The list shows a part of the results.

system: T1, C. trachomatis L2/434/Bu expressing GFP (CTL2-GFP); parameters: species or system HeLa; C. trachomatis total inclusion area by high-content imaging, normalised to DMSO; settings: total inclusion area; 28.5 h, 10 µM; inhibitor
T1 construct: L2/434/Bu GFP intracellular growth in HeLa cells
In short: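 Post-fluorescence-read fixation, DNA staining with Hoechst and high-content imaging; GFP inclusion area and number per well, and nuclei counts, used as proxies for bacterial growth and host viability.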

| Structure (SMILES) | % of control remaining |
| --- | --- |
| CCCCn1ncnc1-c1cnc2ccnn2c1C [CBK307305] | 74.3411 |
| Cc1nc(-c2nnc(SCc3ccc(C(F)(F)F)cc3)o2)cs1 [CBK067715] | 79.0994 |
| O=[N+]([O-])c1ccc(S(=O)(=O)NCCc2nc3ccccc3[nH]2)cc1 [CBK261796] | 77.165 |
| CN1C(=O)NC(c2ccc(Br)cc2)C2=C1CN(c1cccc(C(=O)O)c1)C2=O (stereo not shown) [CBK286729] | 73.3606 |
| CCCCc1ccc(S(=O)(=O)n2ccc3c(N4CCNCC4)nccc32)cc1 [CBK045805C] | 103.817 |
| COC(=O)c1cc(-c2ccccc2)sc1NC(=O)CSc1ncnc2sc3c(c12)CCC3 [CBK265978] | 138.129 |
| COc1cc(CNC(=O)N2CCCC(CO)C2)cc(OC)c1OC (stereo not shown) [CBK156041] | 85.8136 |
| CCOC(=O)N1N=C(c2ccc(F)cc2)CC1(O)C(F)(F)F (stereo not shown) [CBK027156] | 83.0312 |
| O=C(/C=C(O)/C(O)=C/C(=O)c1ccc(Cl)cc1)c1ccc(Cl)cc1 [CBK261428] | 92.1743 |
| OCCN1CCN(c2ccc(-c3cc(C(F)(F)F)cc(C(F)(F)F)c3)cn2)CC1 [CBK036941] | 86.8253 |
| O=C(O)CCC(=O)Nc1ccc(OC(F)F)cc1 [CBK264222] | 90.546 |
| O=C1NC2(CCCC2)C(=O)N1Cc1cnn(-c2ccccc2)n1 [CBK305568] | 77.7563 |
| COC(=O)c1ccccc1NC(=O)CSc1n[nH]c(-c2ccccc2Cl)n1 [CBK265966] | 74.6518 |
| Clc1ccc(CN2CCN(c3nccnc3OC3CCCCC3)CC2)cc1 [CBK082826T] | 57.4988 |
| Cc1ccc(S(=O)(=O)N2CCN(C)CC2)cc1NC(=O)c1ccc(Br)o1 [CBK034260C] | 85.9301 |
| COc1ccc(-c2cc(C(=O)NCCc3c[nH]cn3)cnc2-c2ccc(F)cc2)cn1 [CBK036675] | 80.9202 |
| O=C(NCCc1cccs1)Nc1cc(Cl)nc(Cl)c1 [CBK043762] | 87.8437 |
| COc1ccc(NC(=O)c2cnc(-c3cccc(C(F)(F)F)c3)c(-c3ccncc3)c2)cc1 [CBK037593] | 92.3935 |
| CC(Sc1ccc(S(=O)(=O)N2CCN(C)CC2)cn1)C(=O)Nc1ccc(C(C)(C)C)cc1 (stereo not shown) [CBK297551] | 59.1237 |
| Cc1cccnc1Nc1ccc(C2CCCN(C(=O)Cc3ccc4c(c3)CCCO4)C2)nc1 (stereo not shown) [CBK285969] | 96.9777 |
| O=C1NC2=C(C(=O)N(CC3CCCO3)C2)C(c2ccccc2)N1 (stereo not shown) [CBK283494] | 75.3 |
| CNC(=O)CN1CCC[C@@H]2NC(=O)c3ccccc3OCCCCC[C@@H]21 [CBK292104] | 89.7888 |
| Cn1nc(NC(=O)CN2CCOC2=O)c2c(N3CCOCC3)cccc21 [CBK306830] | 47.2028 |
| O=C(CCCc1nc2ccccc2c(=O)[nH]1)NC(Cc1ccc(O)cc1)C(=O)O (stereo not shown) [CBK297130] | 92.4295 |
| OCC1(CNc2ncc(F)c(N3CCCC3)n2)CCCC1 [CBK307397] | 29.6896 |
| COc1ccc(CN(Cc2ccc(NC(C)=O)cc2)[C@@H]2COC[C@H]2c2ccc(F)cc2)cc1 [CBK286488] | 81.9608 |
| Nc1cc(=O)[nH]c(SCC(=O)N2CCCc3ccccc32)n1 [CBK304576] | 80.5225 |

| Structure (SMILES) | % of control remaining |
| --- | --- |
| CC(Oc1ccccc1)C(=O)Nc1cccc(-c2nnc(-c3ccccc3)o2)c1 (stereo not shown) [CBK262822] | 103.993 |
| O=C(NC1CCN(CC2(c3ccccc3)CC2)CC1)C1CCC1 [CBK285322] | 91.6519 |
| Cc1nccn1CCCC(=O)NCC1(c2ccccc2F)CCCC1 [CBK281370] | 68.9272 |
| CC(C)C(=O)Nc1cc2cccnc2c(-c2ccccc2)n1 [CBK081287] | 98.683 |
| c1ccc(-c2ccno2)c(OCc2ccc(-c3nccnc3-c3nnn[nH]3)cc2)c1 [CBK050817] | 88.4649 |
| CN(C(=O)CSc1ncccc1C#N)c1ccccc1 [CBK288044] | 117.041 |
| O=C(C1=C(O)C(=O)N(c2ccc([N+](=O)[O-])cc2)C1c1ccccc1)c1ccccc1 (stereo not shown) [CBK263787] | 114.486 |
| CC(C)Nc1nccnc1OCc1ccsc1 [CBK115646] | 110.595 |
| CCCN(C)Cc1ccc(-c2cn(CC(=O)NCc3ccc4c(c3)OC(F)(F)O4)nn2)cc1 [CBK166361] | 52.1737 |
| C[S+]([O-])CC(O)(c1ccc(F)cc1)C1CC1 (stereo not shown) [CBK025846] | 116.858 |
| CN(CCN(C)/N=C/c1c2ccccc2cc2ccccc12)/N=C/c1c2ccccc2cc2ccccc12 [CBK262039] | 120.109 |
| Cc1ccc(C2CC(=O)Nc3nc(-c4ccccc4)[nH]c(=O)c32)c(C)c1 (stereo not shown) [CBK287998] | 78.2262 |
| CCN1CCN(C(=O)Cc2cn(C)c3ccccc23)CC1 [CBK200254] | 98.3603 |
| Cc1cc(C)n(CCNC2CCN(c3ccccc3C)CC2)c(=O)n1 [CBK306848] | 76.9949 |
| CC(=O)N1CCN(C(=O)c2cnc(-c3ccc(Cl)cc3)c(-c3ccco3)c2)CC1 [CBK037518] | 100.203 |
| Cc1ccc(CS(=O)(=O)N(CCO)C2CCC2)c(F)c1 [CBK304101] | 54.2264 |
| COC(=O)c1ccc(N2CCN(Cc3nnnn3C3CC3)C(C)C2)cc1 (stereo not shown) [CBK306129] | 86.9816 |
| N=C(NC(=S)Nc1ccccc1)N1CCN(Cc2ccccc2)CC1 [CBK267878] | 95.9305 |
| NS(=O)(=O)c1ccc(-c2ccc(/C=C3/SC(=S)N(C4CCCCC4)C3=O)o2)cc1 [CBK263127] | 89.3181 |
| O=C(NC(S(=O)O)C(F)(F)F)OCc1ccccc1 (stereo not shown) [CBK018979] | 138.629 |
| CC(Oc1cccc2cccnc12)C(=O)N/N=C/c1ccc(-c2ccc(Br)cc2)o1 (stereo not shown) [CBK262838] | 45.4182 |
| CNC(=O)c1cnc2sc3c(n2c1=O)CCCC3 [CBK288126] | 74.7588 |
| CCN(CC)C(=O)C1CCCN(C(=O)Nc2ccc(N(CC)CC)cc2)C1 (stereo not shown) [CBK156139] | 65.3308 |
| Fc1ccc(-c2c[nH]c([C@@H]3COCCN3Cc3ncc[nH]3)n2)cc1 [CBK289263] | 119.82 |
| COc1ccc(OC)c(N2Cc3ccc(OC)c(OC)c3C2=O)c1 [CBK113161] | 123.245 |
| C[C@@H](Nc1nc(-c2ccccc2)cnc1N)c1ccccc1 [CBK063728] | 84.0636 |
| CCOCCCNC(=O)c1cnn2c(C)c(CC)c(C)nc12 [CBK162129] | 69.4651 |

| Structure (SMILES) | % of control remaining |
| --- | --- |
| COc1cccc(OCC(=O)NCC(c2ccsc2)N2CCCC2)c1 (stereo not shown) [CBK304630] | 55.346 |
| c1cnc2c(OCc3nc4ccccc4[nH]3)cccc2c1 [CBK268556] | 69.4469 |
| O[C@@]1(c2ccccn2)CC[C@H]2CN(Cc3ccc(F)c(F)c3)C[C@H]21 [CBK285456] | 74.7398 |
| CCn1c(CN2CC(n3nc(C)cc3C)C2)nc2c(F)cccc21 [CBK306220] | 60.4761 |
| CN(C)CC1CCCN(C(=O)C2C3CCCCC32)C1 (stereo not shown) [CBK282002] | 104.331 |
| COc1cc(CN2CCC(N3CCCCCC3)CC2)ccc1OCc1ccccc1 [CBK264709G] | 118.658 |
| CC(=O)C1=C(O)C(=O)N(CCC(=O)O)C1c1ccccc1 (stereo not shown) [CBK286763] | 76.1756 |
| Cc1nc(N2CCOCC2)cc(N2CCN(C(=O)C3CCCC3)CC2)n1 [CBK307602] | 89.661 |
| COc1ccc(C(NC(=O)C2CCN(Cc3c[nH]c4ccccc34)CC2)c2ccccn2)cc1 (stereo not shown) [CBK148033] | 90.7896 |
| COc1ccc(C(=O)NC(=N)NCCc2c[nH]c3ccccc23)cc1 [CBK267840] | 96.9064 |
| Cc1ccc(CN(C(=O)/C=C/C(=O)O)C(C)(C)C)cc1 [CBK286799] | 101.074 |
| CS(=O)(=O)N1CCCCCC1c1cc(-c2ccc(F)cc2)no1 (stereo not shown) [CBK284669] | 93.9296 |
| CNCCOCC(O)CSc1ccccc1 (stereo not shown) [CBK262704] | 95.9697 |
| Cn1ccnc1C(NC(=O)N1CCOCC1)c1ccc(F)c(F)c1 (stereo not shown) [CBK283781] | 66.5109 |
| C#CCNS(=O)(=O)c1cccc(C(=O)N2CCOC(CC(=O)OC)C2)c1 (stereo not shown) [CBK306138] | 42.4014 |
| CCN(CC)CCN(C)C1CCN(C)CC1 [CBK261917] | 60.1331 |
| CC1CCc2c(C(=O)N(C)CC(=O)NC(C)(C)C)csc2C1 (stereo not shown) [CBK305002] | 67.5499 |
| CCOC(=O)c1[nH]c(C)c(C(=O)N/N=C/c2ccc(-c3ccc(Cl)cc3)o2)c1C [CBK262503] | 113.685 |
| COc1ccc(NS(=O)(=O)c2ccc(OCC(=O)N3CCN(C)CC3)cc2)cc1Cl [CBK269565] | 76.3875 |
| O=C1CN(c2ccccc2)C(=O)N1c1ccccc1 [CBK116496] | 104.571 |
| Cc1cc(OC(F)(F)F)ccc1NS(=O)(=O)c1cnn(-c2ccccc2)c1C [CBK062354] | 74.5145 |
| COC(=O)c1ccc(S(=O)(=O)n2ccn(-c3cccc(C(F)(F)F)c3)c2=O)n1C [CBK106594] | 88.1965 |
| CN1CCN(C(=O)Cn2cc(C(=O)NC3CCCCC3)ccc2=O)C(c2ccccc2)C1 (stereo not shown) [CBK286102] | 116.589 |
| C[C@H]1CN2C[C@H](O)CC2CN1Cc1cccn1-c1ccc(F)cc1 (stereo partly shown) [CBK285465] | 91.3545 |
| CCC(CC)C(=O)N(C)c1c(C)nc2c(OCC(=O)c3ccc(F)cc3)cccn12 [CBK147239] | 87.8155 |
